This passage reports Emax results from patent US20190367516A1 (Bayer Pharma Aktiengesellschaft, priority 2015, published 2019).

In the test the target is T1, human M2 receptor (Homo sapiens, UniProt P08172).
T1 sequence (P08172 1-466): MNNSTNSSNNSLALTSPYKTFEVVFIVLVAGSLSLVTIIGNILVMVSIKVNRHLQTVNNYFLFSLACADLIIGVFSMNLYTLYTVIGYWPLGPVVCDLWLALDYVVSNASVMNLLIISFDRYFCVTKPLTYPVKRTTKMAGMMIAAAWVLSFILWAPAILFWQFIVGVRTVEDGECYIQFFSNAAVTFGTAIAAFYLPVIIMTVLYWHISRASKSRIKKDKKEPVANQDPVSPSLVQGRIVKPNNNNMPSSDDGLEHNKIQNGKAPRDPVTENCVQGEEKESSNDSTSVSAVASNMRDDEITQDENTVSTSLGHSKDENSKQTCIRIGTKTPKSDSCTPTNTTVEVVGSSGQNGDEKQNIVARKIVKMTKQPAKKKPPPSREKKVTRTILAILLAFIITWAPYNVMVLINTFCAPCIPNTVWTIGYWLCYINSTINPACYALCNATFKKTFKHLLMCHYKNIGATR
Particulars: read-out: Efficiency, M2-GIRK1/4 activation test; boosting of the acetylcholine effect at an EC20 acetylcholine concentration.

Regarding `CC(C)(C)[C@H](NC(=O)c1cn(-c2c(F)cc(F)cc2F)c2nc(N3CCNC3=O)ccc2c1=O)C(F)(F)F` [Example 359, 4-Oxo-7-(2-oxoimidazolidin-1-yl)-N-[(2S)-1,1,1-trifluoro-3,3-dimethylbutan-2-yl]-1-(2,4,6-trifluorophenyl)-1,4-dihydro-1,8-naphthyridine-3-carboxamide], the Emax came to 98.5%.

`CC(C)(C)[C@@H](NC(=O)c1cn(-c2c(F)cc(F)cc2F)c2nc(N3CCN(CCO)C3=O)ccc2c1=O)C(F)(F)F` [Example 361, 7-[3-(2-Hydroxyethyl)-2-oxoimidazolidin-1-yl]-4-oxo-N-[(2R)-1,1,1-trifluoro-3,3-dimethylbutan-2-yl]-1-(2,4,6-trifluorophenyl)-1,4-dihydro-1,8-naphthyridine-3-carboxamide]: the Emax stood at 100%. Take `CC[C@H](NC(=O)c1cn(-c2c(F)cc(F)cc2F)c2nc(N3CCN(CCO)C3=O)ccc2c1=O)C(F)(F)F` [Example 362, 7-[3-(2-Hydroxyethyl)-2-oxoimidazolidin-1-yl]-4-oxo-N-[(2S)-1,1,1-trifluorobutan-2-yl]-1-(2,4,6-trifluorophenyl)-1,4-dihydro-1,8-naphthyridine-3-carboxamide]: the Emax stood at 97%.

Regarding `O=C(N[C@@H](C1CC1)C(F)(F)F)c1cn(-c2c(F)cc(F)cc2F)c2nc(N3CCN(CCO)C3=O)ccc2c1=O` [Example 363, N-[(1 S)-1-Cyclopropyl-2,2,2-trifluoroethyl]-7-[3-(2-hydroxyethyl)-2-oxoimidazolidin-1-yl]-4-oxo-1-(2,4,6-trifluorophenyl)-1,4-dihydro-1,8-naphthyridine-3-carboxamide], the Emax was 95%.

Take `O=C(N[C@@H](C1CC1)C(F)(F)F)c1cn(-c2c(F)cc(F)cc2F)c2nc(N3CCCN(CCO)C3=O)ccc2c1=O` [Example 364, N-[(1 S)-1-Cyclopropyl-2,2,2-trifluoroethyl]-7-[3-(2-hydroxyethyl)-2-oxotetrahydropyrimidin-1(2H)-yl]-4-oxo-1-(2,4,6-trifluorophenyl)-1,4-dihydro-1,8-naphthyridine-3-carboxamide]: the Emax turned out to be 93%. Consider `CC[C@H](NC(=O)c1cn(-c2c(F)cc(F)cc2F)c2nc(N3CCCN(CCO)C3=O)ccc2c1=O)C(F)(F)F` [Example 365, 7-[3-(2-Hydroxyethyl)-2-oxotetrahydropyrimidin-1(2H)-yl]-4-oxo-N-[(2S)-1,1,1-trifluorobutan-2-yl]-1-(2,4,6-trifluorophenyl)-1,4-dihydro-1,8-naphthyridine-3-carboxamide], for which the Emax is 97%.

Consider `O=C(NC12CC(C1)C2)c1cn(-c2c(F)cc(F)cc2F)c2nc(N3C[C@@H](O)[C@H](O)C3)ccc2c1=O` [Example 366, N-(Bicyclo[1.1.1]pent-1-yl)-7-[(3R,4R)-3,4-dihydroxypyrrolidin-1-yl]-4-oxo-1-(2,4,6-trifluorophenyl)-1,4-dihydro-1,8-naphthyridine-3-carboxamide], for which the Emax was 100%. As for `O=C(NC12CC(F)(C1)C2)c1cn(-c2c(F)cc(F)cc2F)c2nc(N3C[C@@H](O)CC3=O)ccc2c1=O` [Example 367, N-(3-Fluorobicyclo[1.1.1]pent-1-yl)-7-[(4S)-4-hydroxy-2-oxopyrrolidin-1-yl]-4-oxo-1-(2,4,6-trifluorophenyl)-1,4-dihydro-1,8-naphthyridine-3-carboxamide], the Emax is 93%. Regarding `O=C(NC12CC(F)(C1)C2)c1cn(-c2c(F)cc(F)cc2F)c2nc(N3C[C@@H](O)[C@H](O)C3)ccc2c1=O` [Example 368, 7-[(3R,4R)-3,4-Dihydroxypyrrolidin-1-yl]-N-(3-fluorobicyclo[1.1.1]pent-1-yl)-4-oxo-1-(2,4,6-trifluorophenyl)-1,4-dihydro-1,8-naphthyridine-3-carboxamide], the Emax turned out to be 100%. For the molecule `CC(C)(CC(F)(F)F)NC(=O)c1cn(-c2c(F)cc(F)cc2F)c2nc(N3C[C@@H](O)[C@H](O)C3)ccc2c1=O` [Example 370, 7-[(3R,4R)-3,4-Dihydroxypyrrolidin-1-yl]-4-oxo-N-(4,4,4-trifluoro-2-methylbutan-2-yl)-1-(2,4,6-trifluorophenyl)-1,4-dihydro-1,8-naphthyridine-3-carboxamide], the Emax was 97.2%.

For the molecule `O=C(NC12CC(C(F)(F)F)(C1)C2)c1cn(-c2c(F)cc(F)cc2F)c2nc(N3C[C@@H](O)[C@H](O)C3)ccc2c1=O` [Example 371, 7-[(3R,4R)-3,4-Dihydroxypyrrolidin-1-yl]-4-oxo-N-[3-(trifluoromethyl)bicyclo[1.1.1]pent-1-yl]-1-(2,4,6-trifluorophenyl)-1,4-dihydro-1,8-naphthyridine-3-carboxamide], the Emax worked out at 97.5%.

Take `O=C(NC12CC(C(F)(F)F)(C1)C2)c1cn(-c2c(F)cc(F)cc2F)c2nc(N3C[C@@H](O)CC3=O)ccc2c1=O` [Example 372, 7-[(4S)-4-Hydroxy-2-oxopyrrolidin-1-yl]-4-oxo-N-[3-(trifluoromethyl)bicyclo[1.1.1]pent-1-yl]-1-(2,4,6-trifluorophenyl)-1,4-dihydro-1,8-naphthyridine-3-carboxamide]: the Emax was found to be 100%. For `O=C(N[C@@H](C1CC1)C(F)(F)F)c1cn(-c2c(F)cc(F)cc2F)c2nc(N3CCNS3(=O)=O)ccc2c1=O` [Example 373, N-[(1 S)-1-Cyclopropyl-2,2,2-trifluoroethyl]-7-(d1,1-dioxido-1,2,5-thiadiazolidin-2-yl)-4-oxo-1-(2,4,6-trifluorophenyl)-1,4-dihydro-1,8-naphthyridine-3-carboxamide] the value was 100%; for `O=C(N[C@@H](C1CC1)C(F)(F)F)c1cn(-c2c(F)cc(F)cc2F)c2nc(N3CCOC3=O)ccc2c1=O` [Example 374, N-[(1S)-1-Cyclopropyl-2,2,2-trifluoroethyl]-4-oxo-7-(2-oxo-1,3-oxazolidin-1.3-yl)-1-(2,4,6-trifluorophenyl)-1,4-dihydro-1,8-naphthyridine-3-carboxamide], 60%.

As for `CC(C)(CC(F)(F)F)NC(=O)c1cn(-c2c(F)cc(F)cc2F)c2nc(N3CCN(CCO)C3=O)ccc2c1=O` [Example 375, 7-[3-(2-Hydroxyethyl)-2-oxoimidazolidin-1-yl]-4-oxo-N-(4,4,4-trifluoro-2-methylbutan-2-yl)-1-(2,4,6-trifluorophenyl)-1,4-dihydro-1,8-naphthyridine-3-carboxamide], the Emax was 96%. For the molecule `CC(C)(CC(F)(F)F)NC(=O)c1cn(-c2c(F)cc(F)cc2F)c2nc(N3CCNC3=O)ccc2c1=O` [Example 376, 4-Oxo-7-(2-oxoimidazolidin-11-yl)-N-(4,4,4-trifluoro-2-methylbutan-2-yl)-1-(2,4,6-trifluorophenyl)-1,4-dihydro-1,8-naphthyridine-3-carboxamide], the Emax is 93%. Consider `CC[C@H](NC(=O)c1cn(-c2c(F)cc(F)cc2F)c2nc(N3CCN/C3=N\C(=O)OC)ccc2c1=O)C(F)(F)F` [Example 377, Methyl {1-[5-oxo-6-{[(2S)-1,1,1-trifluorobutan-2-yl]carbamoyl}-8-(2,4,6-trifluorophenyl)-5,8-dihydro-1,8-naphthyridin-2-yl]imidazolidin-2-ylidene}carbamate], for which the Emax turned out to be 99%. For `C[C@@H](O)CNc1ccc2c(=O)c(C(=O)N[C@@H](C3CC3)C(F)(F)F)cn(-c3c(F)cc(F)cc3F)c2n1` [Example 378, N-[(1S)-1-Cyclopropyl-2,2,2-trifluoroethyl]-7-{[(2R)-2-hydroxypropyl]amino}-4-oxo-1-(2,4,6-trifluorophenyl)-1,4-dihydro-1,8-naphthyridine-3-carboxamide] the value was 76.8%; for `CC(C)(NC(=O)c1cn(-c2c(F)cc(F)cc2F)c2nc(N3C[C@@H](O)[C@H](O)C3)ccc2c1=O)C1CC1` [Example 379, N-(2-Cyclopropylpropan-2-yl)-7-[(3R,4R)-3,4-dihydroxypyrrolidin-1-yl]-4-oxo-1-(2,4,6-trifluorophenyl)-1,4-dihydro-1,8-naphthyridine-3-carboxamide], 95.5%. Then `N#CN1CCCN(c2ccc3c(=O)c(C(=O)N[C@@H](C4CC4)C(F)(F)F)cn(-c4c(F)cc(F)cc4F)c3n2)C1=O` [Example 380, 7-(3-Cyano-2-oxotetrahydropyrimidin-1(2H)-yl)-N-[(1S)-1-cyclopropyl-2,2,2-trifluoroethyl]-4-oxo-1-(2,4,6-trifluorophenyl)-1,4-dihydro-1,8-naphthyridine-3-carboxamide], with 88%. Regarding `C[C@@H]1CN(c2ccc3c(=O)c(C(=O)N[C@@H](C)COC(F)(F)F)cn(-c4c(F)cc(F)cc4F)c3n2)C(=O)N1` [Example 381, 7-[(4R)-4-Methyl-2-oxoimidazolidin-1-yl]-4-oxo-N-[(2S)-1-(trifluoromethoxy)propan-2-yl]-1-(2,4,6-trifluorophenyl)-1,4-dihydro-1,8-naphthyridine-3-carboxamide], the Emax is 87%. In the case of `CC(C)(NC(=O)c1cn(-c2c(F)cc(F)cc2F)c2nc(N3CCCN(CCO)C3=O)ccc2c1=O)C(F)F` [Example 382, N-(1,1-Difluoro-2-methylpropan-2-yl)-7-[3-(2-hydroxyethyl)-2-oxotetrahydropyrimidin-1(2H)-yl]-4-oxo-1-(2,4,6-trifluorophenyl)-1,4-dihydro-1,8-naphthyridine-3-carboxamide], the Emax was 91%.
